Results reported in the supplement of paper PMC3656093.
± gives the standard deviation of the averaged measurements. The full ranking holds about 1,900 compounds; the median of “CD40L-induced NF-kB luciferase activity, plate-corrected, relative to DMSO (0) and IKK inhibitor VII (-100) controls” is about 0.032, and the lowest 2% start at about -26. The list shows a part of the results.

Test system: BL2-NFkB-Luc
Experiment: CD40L-induced NF-kB luciferase activity, plate-corrected, relative to DMSO (0) and IKK inhibitor VII (-100) controls (% normalized activity); higher = more NF-kB reporter activity (less inhibition)
Details: 9.4 µM; stimulus: tCD40L 64 ng/ml; 4.5 h
Experimental: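 BL2 B cells with a stable NF-kB response-element luciferase reporter (BL2-NFkB-Luc), 384-well. Cells were pre-incubated with compound at 9.4 uM for 1 h at 37 C, then stimulated with 64 ng/ml trimerized CD40L for 4.5 h; luciferase was read with Steady-Glo. Signal was normalised per plate in Genedata (median DMSO neutral control = 0, median IKK inhibitor VII at 50 uM = -100) with Assay Median plate-pattern correction; duplicate plates.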

Compound	CD40L-induced NF-kB luciferase activity
COC(=O)[C@@H](N)CS	-1.29 ± 2.6
COc1ccc([C@@H]2Sc3ccccc3N(CCN(C)C)C(=O)[C@@H]2OC(C)=O)cc1	5.1 ± 0.79
CN(CCCN1CCOCC1)Cc1cn(C)nc1-c1ccccc1F	-0.178 ± 0.15
Cc1onc(-c2c(Cl)cccc2Cl)c1C(=O)NC1C(=O)N2C1SC(C)(C)C2C(=O)O (configuration not stated)	1.82 ± 6.3
O=C(c1cccc2ccccc12)C1CCCN(C(=O)CCN2CCCO2)C1 (configuration not stated)	2.54 ± 2
CN(C)CCN(Cc1ccc(Cl)cc1)c1ccccn1	-9.63 ± 1.9
CC(C[N+](C)(C)C)OC(N)=O (configuration not stated)	0.195 ± 3.1
Cc1cccc2c1CC(C)(C)N/C2=C\C(N)=O	0.514 ± 2.1
CCOC(=O)C1NN=C(C(=O)c2ccccc2)C1c1ccc(Cl)cc1 (configuration not stated)	-1.13 ± 2
Cc1ccc2c(c1)C(CCN)C(=O)N2Cc1ccccc1 (configuration not stated)	1.33 ± 2
COC(=O)c1cc(Br)c(=O)n(CCc2ccc(O)cc2)c1	-2.88 ± 1.4
CC(C)c1ccc2[nH]c3c(c2c1)CCCC3=O	-5.19 ± 1.1
CN1/C(=C\C=Nc2ccccc2)C(C)(C)c2ccccc21	4.74 ± 6.2
COc1cc(NC(=O)COc2ccccc2)c(OC)cc1NC(C)=O	2.35 ± 11
CN(C)CCCNc1ncnc2c1cnn2-c1ccccc1	27.2 ± 0.45
COc1cc(C(=O)NCCc2c[nH]c3ccccc23)ccc1OCc1c(C)noc1C	2.18 ± 3.7
CC1(C)[C@@H](O)CC[C@]2(C)[C@H]3C(=O)C=C4[C@@H]5C[C@@](C)(C(=O)O)CC[C@]5(C)CC[C@@]4(C)[C@]3(C)CC[C@@H]12	-8.18 ± 12
Cc1ccc2c(ccc(=S)n2C)c1	2.71 ± 0.058
O=C(O)CCCNc1ccc(S(=O)(=O)Nc2ccccc2C(=O)O)cc1C(=O)O	0.353 ± 1.5

Compound	CD40L-induced NF-kB luciferase activity
CC1(C)CC(c2csc(N)n2)CCO1 (configuration not stated)	-0.219 ± 0.6
COc1ccc2c(c1)C(=O)CC(c1ccccc1F)O2 (configuration not stated)	30.1 ± 12
COCCOC(=O)C1=C(C)NC(C)=C(C(=O)OC(C)C)C1c1cccc([N+](=O)[O-])c1 (configuration not stated)	-8.16 ± 8.3
CN1C(C(=O)Nc2ccccn2)C(=O)c2ccccc2S1(=O)=O (configuration not stated)	-3.11 ± 3.9
O=C(NC(=S)Nc1nc(-c2ccccc2)cs1)c1ccco1	1.81 ± 1.9
O=C(CCCN1CCC(O)(c2ccc(Cl)cc2)CC1)c1ccc(F)cc1	-2.45 ± 1.3
Cc1ccc(C)c(OCCCC(C)(C)C(=O)O)c1	-0.784 ± 0.67
Cc1ccccc1C(=O)NCC(=O)O	1.5 ± 2.1
COc1ccc2[nH]c(C)c(CN3CCC(C)CC3)c(=O)c2c1	-0.734 ± 4.2
c1ccc(SSc2ccccc2)cc1	-4.25 ± 8.9
Cc1nnc(SCC2=C(C(=O)O)N3C(=O)[C@@H](NC(=O)Cn4cnnn4)[C@H]3SC2)s1	3.21 ± 5.4
CC(C)C(=O)Nc1ccc2c3c(cccc13)CC2	0.449 ± 2.2
O=c1[nH]c(=O)n([C@H]2C[C@H](O)[C@@H](CO)O2)cc1C(F)(F)F	1.36 ± 3.4
COc1cc2c(cc1OC)C1(CCCCC1)CN(C)C2	-4.22 ± 0.72
COc1ccc2oc(=O)c(-c3nc(C)cs3)cc2c1	82.6 ± 9.2
O=c1cc(CN2CCN(c3cccc(Cl)c3)CC2)c2cc(O)c(-c3ccccc3)cc2o1	1.2 ± 10
CCCC(=O)O[C@]1(C(=O)CO)CC[C@H]2[C@@H]3CCC4=CC(=O)CC[C@]4(C)[C@H]3[C@@H](O)C[C@@]21C	-31.6 ± 7.7
O=CNC1CCCc2c1[nH]c1ccc(Cl)cc21 (configuration not stated)	-1.77 ± 0.63
